PubChem BioAssay (NCATS)
Where “and” joins values, the source holds several entries; their conditions need not be identical. Equal entries are not always repeated. The inconclusive results got no clear call from the source; some entries with a clear call stand among them for comparison. Where the call is inconclusive, the potency comes from a doubtful curve fit. Calls of active or inactive are those of the source. Calls follow the shape of the dose curve; as a rule, active = well fitted curve in the direction sought with a large enough effect; inconclusive = small, poorly fitted or top-dose-only effect, or another doubt; inactive = no such curve, though single readings can be large; an effect the other way counts as inactive or inconclusive.

How the values were obtained:
[1] = qHTS of pediatric cancer cell lines to identify multiple opportunities for drug repurposing: Primary screen for DAOY cells (AID 1347090); details: DAOY medulloblastoma viability, CellTiter-Glo luminescence, 48 h; activity change, negative = cytotoxic: at 46 µM (top of the series); also: nearly all actives have a fitted effect of over 55% in size;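 as to activity change, negative = cytotoxic: plate controls were DMSO for no effect and bortezomib for full effect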
Outline: (§1)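 Viability measured as metabolically active cells via CellTiter-Glo luminescence following 48 hours of compound exposure, 11-point dilutions in confirmatory testing. 500-1,000 cells/well plated 5 hours before dosing; controls were DMSO and 2.3 µM bortezomib.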

[2] = qHTS of pediatric cancer cell lines to identify multiple opportunities for drug repurposing: Primary screen for SJ-GBM2 cells (AID 1347091);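 as to activity change, negative = cytotoxic: plate controls were DMSO neutral control for no effect and bortezomib for full effect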
Outline: as §1

[3] = qHTS of pediatric cancer cell lines to identify multiple opportunities for drug repurposing: Primary screen for SK-N-MC cells (AID 1347093); details: SK-N-MC viability, CellTiter-Glo luminescence, 48 h; activity change, negative = cytotoxic: at 46 µM (top of the series)
Outline: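 Metabolically active cells were quantified by ATP-dependent luminescence (CellTiter-Glo, 15 min at room temperature) following 48 h treatment. Cells had been plated at 500-1,000 per well and settled for 5 h beforehand.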

[4] = qHTS of pediatric cancer cell lines to identify multiple opportunities for drug repurposing: Primary screen for BT-37 cells (AID 1347094);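 as to activity change, negative = cytotoxic: plate controls were DMSO for no effect and bortezomib for full effect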
Outline: (§2)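 500-1,000 cells/well; 5 h pre-incubation 37 °C/5% CO2; compound pinned; 48 h; CellTiter-Glo, 15 min RT; luminescence. MIPE 11-pt from 0.78 nM, NPC 8-pt from 0.59 nM final. Bortezomib 2.3 µM final as positive control.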

[5] = qHTS of pediatric cancer cell lines to identify multiple opportunities for drug repurposing: Primary screen for NB-EBc1 cells (AID 1347095)
Outline: as §2

[6] = qHTS of pediatric cancer cell lines to identify multiple opportunities for drug repurposing: Primary screen for U-2 OS cells (AID 1347096); also: nearly all actives have a fitted effect of over 50% in size;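 as to activity change, negative = cytotoxic: plate controls were DMSO wells for no effect and bortezomib positive control wells for full effect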
Outline: (§3)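 Viability after 48 h compound treatment at 37C, 500-1,000 cells/well, read as ATP luminescence with CellTiter-Glo. Primary screens used 11-point (MIPE, 0.78 nM-46 µM) or 8-point (NPC, 0.59 nM-46 µM) final concentrations; follow-up screens used 11-point dilutions.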

[7] = qHTS of pediatric cancer cell lines to identify multiple opportunities for drug repurposing: Primary screen for Saos-2 cells (AID 1347097); also: nearly all actives have a fitted effect of over 40% in size
Outline: as §2

[8] = qHTS of pediatric cancer cell lines to identify multiple opportunities for drug repurposing: Primary screen for LAN-5 cells (AID 1347100); details: LAN-5 neuroblastoma viability, CellTiter-Glo luminescence, 48 h; activity change, negative = cytotoxic: at 46 µM (top of the series)
Outline: as §3

[9] = qHTS of pediatric cancer cell lines to identify multiple opportunities for drug repurposing: Primary screen for BT-12 cells (AID 1347101); also: nearly all actives have a fitted effect of over 25% in size
Outline: (§4)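 Cells (500-1,000/well) rested 5 h, then received compounds for 48 h; metabolically active cells were measured by CellTiter-Glo luminescence. Final concentrations spanned up to 46 µM (MIPE, 11-point) or 0.59 nM-46 µM (NPC, 8-point) in primary screens, 11-point in follow-ups.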

[10] = qHTS of pediatric cancer cell lines to identify multiple opportunities for drug repurposing: Primary screen for Rh18 cells (AID 1347102); also: nearly all actives have a fitted effect of over 65% in size; as to activity change, negative = cytotoxic: % is scaled to controls: 0 for no effect and ±100 for the full control effect
Outline: as §3

[11] = qHTS of pediatric cancer cell lines to identify multiple opportunities for drug repurposing: Primary screen for RD cells (AID 1347104); also: nearly all actives have a fitted effect of over 55% in size;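 as to activity change, negative = cytotoxic: plate controls were DMSO for no effect and bortezomib for full effect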
Outline: as §2

[12] = qHTS of pediatric cancer cell lines to identify multiple opportunities for drug repurposing: Primary screen for control Hh wild type fibroblast cells (AID 1347106); also: nearly all actives have a fitted effect of over 55% in size
Outline: as §3

[13] = qHTS of pediatric cancer cell lines to identify multiple opportunities for drug repurposing: Primary screen for A673 cells (AID 1347092); details: A673 Ewing sarcoma viability, CellTiter-Glo ATP luminescence, 48 h; activity change, negative = cytotoxic: at 46 µM (top of the series); also: nearly all actives have a fitted effect of over 45% in size
Outline: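 Cells are plated, rested 5 h, dosed by pintool, incubated 48 h, then lysed with CellTiter-Glo and read by luminescence. DMSO is the neutral control; bortezomib at 2.3 uM final is the positive control.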

[14] = qHTS of pediatric cancer cell lines to identify multiple opportunities for drug repurposing: Primary screen for SK-N-SH cells (AID 1347098); also: nearly all actives have a fitted effect of over 65% in size
Outline: as §4

[15] = qHTS of pediatric cancer cell lines to identify multiple opportunities for drug repurposing: Primary screen for OHS-50 cells (AID 1347103); also: nearly all actives have a fitted effect of over 40% in size
Outline: as §4

[16] = qHTS of pediatric cancer cell lines to identify multiple opportunities for drug repurposing: Primary screen for Rh41 cells (AID 1347108); also: nearly all actives have a fitted effect of over 70% in size
Outline: as §2

[17] = qHTS of pediatric cancer cell lines to identify multiple opportunities for drug repurposing: Confirmatory screen for NB1643 cells (AID 1347109); details: NB1643 neuroblastoma cell viability; activity change, negative = cytotoxic: at 45.9 µM (top of the series); also: nearly all actives have a fitted effect of over 45% in size;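 as to activity change, negative = cytotoxic: plate controls were DMSO for no effect and bortezomib for full effect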
Outline: as §3

[18] = qHTS of pediatric cancer cell lines to identify multiple opportunities for drug repurposing: Primary screen for NB1643 cells (AID 1347099); also: nearly all actives have a fitted effect of over 50% in size
Outline: as §2

[19] = qHTS of pediatric cancer cell lines to identify multiple opportunities for drug repurposing: Primary screen for MG 63 (6-TG R) cells (AID 1347105); details: MG 63 (6-TG R) viability, CellTiter-Glo, 48 h; activity change, negative = cytotoxic: at 46 µM (top of the series); also: nearly all actives have a fitted effect of over 50% in size
Outline: as §2

[20] = qHTS of pediatric cancer cell lines to identify multiple opportunities for drug repurposing: Primary screen for Rh30 cells (AID 1347107); also: nearly all actives have a fitted effect of over 75% in size
Outline: as §3
Potency is read from the fitted curve at half-maximal effect; tags tell the direction and shape of the fitted curve.

CO[C@@H]1C(N(C)C(=O)c2ccccc2)C[C@H]2O[C@]1(C)n1c3ccccc3c3c4c(c5c6ccccc6n2c5c31)C(=O)NC4=O (stereo not given in full)
inconclusive: Potency [1] 3.72 µM [cytotoxic, full curve] | Potency [5] 2.09 µM [cytotoxic, full curve] | Potency [6] 9.35 µM [cytotoxic, partial curve] | Potency [7] 2.09 µM [cytotoxic, full curve] | Potency [8] 2.96 µM [cytotoxic, full curve] | Potency [9] 3.43 µM [cytotoxic, partial curve, poor fit] | Potency [10] 4.69 µM [cytotoxic, full curve] | Potency [11] 3.32 µM [cytotoxic, full curve] | Potency [12] 5.9 µM [cytotoxic, full curve]
inactive: Potency [4]
active: Potency [2] 2.35 µM | Potency [3] 1.32 µM

Cc1csc(-c2nnc(Nc3ccc(Oc4ncccc4-c4ccnc(N)n4)cc3)c3ccccc23)c1
inconclusive: Potency [1] 18.7 µM [cytotoxic, partial curve] | Potency [4] 30.6 µM [cytotoxic, single point] | Potency [5] 0.0026 µM [cytotoxic, full curve, poor fit] | Potency [7] 1.87 µM [cytotoxic, full curve] | Potency [14] 6.81 µM [cytotoxic, partial curve] | Potency [15] 12.2 µM [cytotoxic, partial curve] | Potency [11] 18.7 µM [cytotoxic, partial curve] | Potency [16] 3.72 µM [cytotoxic, partial curve] | Potency [17] 0.0052 µM [cytotoxic, full curve, poor fit]
active: Potency [2] 0.003 µM | Potency [13] 14.8 µM
inactive: Potency [6]

COc1ccc(C2(C#N)CCC(C(=O)O)CC2)cc1OC1CCCC1 (stereo not given)
inactive: Potency [1] | Potency [2] | Potency [10]
inconclusive: Potency [13] 18.7 µM [cytotoxic, partial curve] | Potency [14] 19.2 µM [cytotoxic, partial curve]

c1cc(N[C@@H]2CCNC2)nc(-c2cnc3ccc(-c4cn[nH]c4)cn23)c1
active: Potency [2] 16.6 µM | Potency [3] 4.69 µM | Potency [4] 19.3 µM | Potency [15] 19.3 µM | Potency [11] 16.6 µM | Potency [12] 23.5 µM | Potency [16] 16.6 µM
inconclusive: Potency [1] 23.5 µM [cytotoxic, partial curve] | Potency [18] 20.9 µM [cytotoxic, partial curve, poor fit]

CCCCOc1c(C(=O)c2c(F)cc(C)cc2F)cnc2n[nH]cc12
inconclusive: Potency [6] 18.7 µM [cytotoxic, single point] | Potency [14] 30.4 µM [cytotoxic, single point] | Potency [12] 13.2 µM [cytotoxic, partial curve, poor fit]
active: Potency [1] 11.8 µM | Potency [2] 1.18 µM | Potency [8] 4.18 µM | Potency [11] 18.7 µM | Potency [19] 11.8 µM | Potency [16] 18.7 µM

COc1cc2ncnc(Nc3cc(Br)c(O)c(Br)c3)c2cc1OC
inconclusive: Potency [1] 0.0296 µM [cytotoxic, full curve] | Potency [2] 16.6 µM [cytotoxic, partial curve] | Potency [4] 24.3 µM [cytotoxic, partial curve] | Potency [5] 13.2 µM [cytotoxic, partial curve] | Potency [14] 0.242 µM [cytotoxic, full curve] | Potency [19] 0.0372 µM [cytotoxic, full curve, poor fit] | Potency [16] 0.833 µM [cytotoxic, full curve] | activity change, negative = cytotoxic [17] -51.3% [cytotoxic]
active: Potency [18] 1.32 µM | Potency [11] 0.935 µM

CCn1c(-c2nonc2N)nc2c(C#CC(C)(C)O)ncc(OC[C@H]3CCCNC3)c21
active: Potency [2] 23.5 µM | Potency [18] 18.7 µM
inconclusive: Potency [1] 14.8 µM [cytotoxic, partial curve] | Potency [4] 43.2 µM [cytotoxic, single point] | Potency [7] 3.72 µM [cytotoxic, partial curve] | Potency [14] 42.9 µM [cytotoxic, single point] | Potency [15] 0.193 µM [cytotoxic, full curve, poor fit] | Potency [19] 1.18 µM [cytotoxic, full curve] | Potency [16] 0.166 µM [cytotoxic, full curve]

C=CC(=O)Nc1cc(NC(=O)c2ccc(C)c(NC(=O)c3ccno3)c2)cc(C(F)(F)F)c1
inconclusive: Potency [1] 23.5 µM [cytotoxic, single point] | Potency [2] 26.4 µM [cytotoxic, single point] | Potency [5] 29.6 µM [cytotoxic, partial curve, poor fit] | Potency [6] 37.2 µM [cytotoxic, single point] | Potency [9] 27.3 µM [cytotoxic, partial curve] | Potency [10] 16.6 µM [cytotoxic, partial curve] | Potency [15] 21.7 µM [cytotoxic, partial curve] | Potency [19] 37.2 µM [cytotoxic, single point] | Potency [12] 33.2 µM [cytotoxic, single point] | Potency [20] 14.8 µM [cytotoxic, partial curve]
active: Potency [14] 24.1 µM | Potency [18] 18.7 µM | Potency [16] 20.9 µM

CCC(=O)O[C@]1(C(=O)SCF)[C@H](C)C[C@H]2[C@@H]3C[C@H](F)C4=CC(=O)C=C[C@]4(C)[C@@]3(F)[C@@H](O)C[C@@]21C
inconclusive: Potency [1] 37.2 µM [cytotoxic, single point] | Potency [2] 26.4 µM [cytotoxic, single point] | Potency [3] 26.4 µM [cytotoxic, partial curve, poor fit] | Potency [5] 33.2 µM [cytotoxic, partial curve, poor fit] | Potency [7] 21.1 µM [cytotoxic, partial curve] and 16.6 µM [cytotoxic, partial curve] | Potency [18] 20.9 µM [cytotoxic, single point] | Potency [10] 33.5 µM [cytotoxic, partial curve, poor fit] | Potency [15] 17.4 µM [cytotoxic, partial curve] and 17.2 µM [cytotoxic, partial curve]
inactive: Potency [11]

C[C@H](c1ccc(F)cc1CCCC(=O)O)N(c1cc(F)ccc1F)S(=O)(=O)c1ccc(Cl)cc1
active: Potency [20] 14.8 µM
inconclusive: Potency [1] 18.7 µM [cytotoxic, partial curve] | Potency [2] 20.9 µM [cytotoxic, partial curve, poor fit] | Potency [4] 17.2 µM [cytotoxic, partial curve, poor fit] | Potency [7] 14.8 µM [cytotoxic, partial curve] | Potency [15] 3.06 µM [cytotoxic, full curve] | Potency [11] 18.7 µM [cytotoxic, partial curve] | Potency [19] 14.8 µM [cytotoxic, partial curve] | Potency [16] 14.8 µM [cytotoxic, partial curve] | Potency [17] 32.9 µM [cytotoxic, partial curve, poor fit]

CN(CC(=O)N(Cc1ccc(C2CCCCC2)cc1)c1ccc(C(=O)O)c(O)c1)S(=O)(=O)c1c(F)c(F)c(F)c(F)c1F
active: Potency [2] 11.8 µM | Potency [7] 16.6 µM | Potency [18] 20.9 µM | Potency [15] 21.7 µM | Potency [16] 23.5 µM | Potency [17] 26.1 µM
inconclusive: Potency [1] 29.6 µM [cytotoxic, single point] | Potency [6] 23.5 µM [cytotoxic, single point] | Potency [9] 34.3 µM [cytotoxic, single point] | Potency [10] 33.2 µM [cytotoxic, single point] | Potency [19] 37.2 µM [cytotoxic, single point] | Potency [20] 20.9 µM [cytotoxic, partial curve]

Cn1cc(-c2ccncc2)c(-c2ccc(OCc3ccc4ccccc4n3)cc2)n1
active: Potency [1] 4.69 µM | Potency [7] 11.8 µM
inconclusive: Potency [2] 18.7 µM [cytotoxic, partial curve] | Potency [4] 9.68 µM [cytotoxic, partial curve] | Potency [5] 11.8 µM [cytotoxic, partial curve] | Potency [18] 18.7 µM [cytotoxic, partial curve] | Potency [8] 2.35 µM [cytotoxic, full curve] | Potency [9] 3.43 µM [cytotoxic, full curve] | Potency [11] 13.2 µM [cytotoxic, partial curve] | Potency [16] 5.26 µM [cytotoxic, partial curve]
